Test results: patent publication US20180258175A1 (ABLEXIS, published 2018)

Assays:
[1] = target: T1, human CD115 extracellular domain (Sino Biological 10161-H08H) (human, UniProt P07333 part only); experiment: competition ELISA, competitor TMR 100A;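 note: clonal anti-huCD115 hybridoma supernatants tested for binding with the competitor antibody present, clones failing to bind are assigned to the competitor's epitope bin; low signal means same epitope bin as the mouse competitor antibody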
T1 construct: extracellular domain; bought recombinant protein; also called huCD115; hu-CD115

[2] = target: T1, human CD115 extracellular domain (Sino …); experiment: competition ELISA, competitor TMR 44B;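 note: binding of antibodies from single-clone hybridoma supernatants to huCD115 measured with the competitor antibody present, a drop in signal meaning both share an epitope bin; low signal means same epitope bin as the mouse competitor antibody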
[3] = target: T1, human CD115 extracellular domain (Sino …); experiment: competition ELISA, competitor TMR 95A;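 note: clonal anti-huCD115 hybridoma supernatants tested for binding while a competitor mouse antibody is present, where failure to bind assigns them to that competitor's epitope bin; low signal means same epitope bin as the mouse competitor antibody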
[4] = target: T1, human CD115 extracellular domain (Sino …); experiment: competition ELISA, competitor TMR 20A;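 note: epitope binning by ELISA, anti-huCD115 hybridoma supernatant antibodies tested for binding to huCD115 with the competitor antibody present, loss of binding placing them in the competitor's bin; low signal means same epitope bin as the mouse competitor antibody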
[5] = target: T1, human CD115 extracellular domain (Sino …); experiment: competition ELISA, competitor TMR 24A
[6] = target: T1, human CD115 extracellular domain (Sino …); experiment: competition ELISA, competitor TMR 35A
[7] = target: T1, human CD115 extracellular domain (Sino …); experiment: SPR ProteOn, supernatant mAb captured on anti-mouse IgG, Hu CD115 analyte

Row | Binder | signal vs NO COMP=100 [1] | signal vs NO COMP=100 [2] | signal vs NO COMP=100 [3] | signal vs NO COMP=100 [4] | signal vs NO COMP=100 [5] | signal vs NO COMP=100 [6] | Kd [7] | koff [7] | kon [7]
1 | CCK-401A (antibody, V domains shown, AlivaMab chimeric IgG, human kappa LC) VH: not shown VL: DIQMTQSPSSLSASVGDRVTITCQASQDISDYLNWYQQKPGKAPKLLIYDESNLETGVPSRFSGSGSGTDFTFTISSLQPEDIGTYYCQQYDNLLTFGPGTKVDIK | 106% | 93% | 94% | 104% | 96% | 98% | – | – | –
2 | CCK-406A (antibody, V domains shown, AlivaMab chimeric IgG, human kappa LC) VH: [letters of about 100 residues not shown]NDYGGPVDAFDIWGQGTMVTVSS VL: DIVMTQSPDSLAVSLGERATINCKSSQSVLYSSNKKNYLTWYQQKVGQPPKLLIYWASTRESGVPDRFSGSGSGTDFTLTISSLQAEDVAVYYCQQYYSTPFTFGGGTKVEIK | 109% | 88% | 87% | 103% | 96% | 99% | – | – | –
3 | CCK-414A (antibody, V domains shown, AlivaMab chimeric IgG, human kappa LC) VH: [letters of about 100 residues not shown]GDYSYTDAFDIWGQGTMVTVSS VL: DIVMTQSPDSLAVSLGERATINCKSSQSVLYSSNNKNYLAWYQQKPGQPPKLLIFWASTRDSGVPDRFSGSGSGTDFTLTISSLQAEDVAVYYCQQYYSTPLTFGGGTKVEIK | 101% | 87% | 86% | 106% | 92% | 91% | – | – | –
4 | CCK-459A (antibody, V domains shown, AlivaMab chimeric IgG, human kappa LC) VH: [letters of about 100 residues not shown]ESPYWYFDLWGRGTLVTVSS VL: DIVMTQSPDSLAVSLGERATINCKSSQTVLYSSDNKNYLAWYQQKPGQPPKLLIYWASTRESGVPDRFSGSGSGTDFTLTISSLQAEDVAVYYCQQYYSTPRTFGQGTKVEIK | 95% | 84% | 77% | 90% | 86% | 3% | 0.68 nM | 3.38e-05 s⁻¹ | 50000 M⁻¹ s⁻¹
